Experimental data from paper PMC4022732.
Results are given in words; binding and its absence hold for the method and conditions named. In cells and extracts the contact can be indirect. Some results given as binding are weak or reduced against the parent protein; the word gives no strength. Sequences can lack the tags named with a protein.

Chains of the proteins cited; added tags and fusions are not shown.
UniProt P9WPE7: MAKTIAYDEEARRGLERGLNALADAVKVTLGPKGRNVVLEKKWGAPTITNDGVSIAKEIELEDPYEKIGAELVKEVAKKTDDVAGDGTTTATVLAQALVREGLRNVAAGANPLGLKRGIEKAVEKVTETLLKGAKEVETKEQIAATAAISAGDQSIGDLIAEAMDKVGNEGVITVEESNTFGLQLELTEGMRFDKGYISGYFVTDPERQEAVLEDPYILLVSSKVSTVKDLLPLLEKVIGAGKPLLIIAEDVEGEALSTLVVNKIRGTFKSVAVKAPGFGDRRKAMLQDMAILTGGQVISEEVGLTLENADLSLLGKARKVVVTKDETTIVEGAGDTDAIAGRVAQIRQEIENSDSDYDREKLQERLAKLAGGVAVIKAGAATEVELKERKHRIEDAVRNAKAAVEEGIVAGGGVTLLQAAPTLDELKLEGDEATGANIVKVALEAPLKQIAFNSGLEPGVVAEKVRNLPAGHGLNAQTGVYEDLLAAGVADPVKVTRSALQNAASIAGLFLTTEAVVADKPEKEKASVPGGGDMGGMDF

B1: Mtb Hip1 (Rv2224c), M-PFC prey fusion (enzyme, UniProt P9WHR3 31-520)
chain: CIRVVGGRARMAEPKLGQPVEWTPCRSSNPQVKIPGGALCGKLAVPVDYDRPDGDVAALALIRFPATGDKIGSLVINPGGPGESGIEAALGVFQTLPKRVHERFDLVGFDPRGVASSRPAIWCNSDADNDRLRAEPQVDYSREGVAHIENETKQFVGRCVDKMGKNFLAHVGTVNVAKDLDAIRAALGDDKLTYLGYSYGTRIGSAYAEEFPQRVRAMILDGAVDPNADPIEAELRQAKGFQDAFNNYAADCAKNAGCPLGADPAKAVEVYHSLVDPLVDPDNPRISRPARTKDPRGLSYSDAIVGTIMALYSPNLWQHLTDGLSELVDNRGDTLLALADMYMRRDSHGRYNNSGDARVAINCVDQPPVTDRDKVIDEDRRAREIAPFMSYGKFTGDAPLGTCAFWPVPPTSQPHAVSAPGLVPTVVVSTTHDPATPYKAGVDLANQLRGSLLTFDGTQHTVVFQGDSCIDEYVTAYLIGGTTPPSGAKC
B2: Mtb KdpE, M-PFC control fusion (protein, UniProt P9WGN1 1-226)
chain: MTLVLVIDDEPQILRALRINLTVRGYQVITASTGAGALRAAAEHPPDVVILDLGLPDMSGIDVLGGLRGWLTAPVIVLSARTDSSDKVQALDAGADDYVTKPFGMDEFLARLRAAVRRNTAAAELEQPVIETDSFTVDLAGKKVIKDGAEVHLTPTEWGMLEMLARNRGKLVGRGELLKEVWGPAYATETHYLRVYLAQLRRKLEDDPSHPKHLLTESGMGYRFEA
B3: Mtb InhA, M-PFC control fusion (protein, UniProt P9WGR1 1-269)
chain: MTGLLDGKRILVSGIITDSSIAFHIARVAQEQGAQLVLTGFDRLRLIQRITDRLPAKAPLLELDVQNEEHLASLAGRVTEAIGAGNKLDGVVHSIGFMPQTGMGINPFFDAPYADVSKGIHISAYSYASMAKALLPIMNPGGSIVGMDFDPSRAMPAYNWMTVAKSALESVNRFVAREAGKYGVRSNLVAAGPIRTLAMSAIVGGALGEEAGAQIQLLEEGWDQRAPIGWNMKDATPVAKTVCALLSDWLPATTGDIIYADGGAHTQLL

Molecular target: Mtb GroEL2 (Rv0440, hsp65), M-PFC bait fusion (Mycobacterium tuberculosis H37Rv) (UniProt P9WPE7)
Assay: split reporter

Row | Binder | binding
1 | B1 | binds
2 | B2 | no binding
3 | B3 | no binding
